Experimental data reported in the supplement of paper PMC3334620.
Over roughly 33,000 sequences, “E-score (-0.5 to 0.5)” has its median near -0.01; the highest 2% begin near 0.26. This is one part of the list.

These sequences were tested against Ste12 (UniProt P13574) (assay: PBM E-score (8-mer binding enrichment) (E-score (-0.5 to 0.5)); higher = stronger / more preferred TF binding; most listed sequences are background and not binding sites). Conditions: protein concentration: 200 nM; construct: GST-DNA-binding domain.
Method: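 Universal 'all 10-mer' protein binding microarrays (Agilent AMADID 015681) probed with GST-tagged S. cerevisiae TFs (full-length or DBD) made by in vitro transcription/translation (PURExpress), about 100-200 nM. Bound TF was detected with fluorescent anti-GST. Each ungapped 8-mer (which stands for itself and its reverse complement) is scored by the PBM enrichment score (E-score), a modified Wilcoxon-Mann-Whitney statistic from -0.5 to +0.5, computed with the Universal PBM Analysis Suite. Scale: above 0.35 generally sequence-specific binding.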

Sequence | PBM E-score
GCTTACCC | -0.168
ATATTTCG | 0.178
AAGTATGC | -0.197
AAACGGGC | 0.0947
TCACTCAA | -0.0929
AGTAGTCG | -0.0275
ATTCAAAC | 0.279
ACGGGAGA | -0.127
ACAGGTTA | -0.0944
CCCAACCA | 0.0418
CCTTGCAA | -0.0217
GCTGTGAA | -0.0834
TGCGTAAA | 0.0161
TATGCTCA | -0.0338
ATGTCCAA | -0.00661
CCCAAGGG | -0.239
GTGACGAA | 0.0546
ACCGGGAC | 0.122
AATAAGAG | 0.0566
ATAGTTGG | 0.0718
AGTCCGAA | 0.0359
AATTTTAT | 0.217
CACCATTC | 0.0486
ACCAATGA | 0.133
AGGAGTAC | -0.268

Sequence | PBM E-score
CCGTAGAG | -0.26
CGCTAAAC | -0.237
CAGTAAGC | -0.091
ATGCCCAG | -0.148
GCCGAAGC | -0.0613
AGGTGCCG | -0.0417
CCCCACCG | 0.137
GATATTGC | 0.0418
CGGGCATC | -0.17
GATAATAA | 0.21
CGGAAGTA | 0.00464
GCGAAGAC | -0.141
CGTTCTTC | -0.0393
GAAAACCC | 0.073
AGCCCCAG | -0.158
AATGAGCA | -0.0226
AATTCATC | -0.216
GTTCACCA | -0.0697
ATGTTCTA | 0.0169
AAACTTGC | 0.0912
ACCTCCCA | -0.187
AGCGGTCG | -0.372
ATACGTCA | 0.101
GACGACGC | 0.0116
CGTGTCAC | 0.0622

Sequence | PBM E-score
ATCGGCCA | -0.147
ACCAGCCA | -0.0724
CACGTACC | -0.125
AAAGGTGT | -0.0487
CAGGACTC | -0.189
CCCCAGAG | -0.184
ACCCACTC | -0.113
AATTGACT | 0.0169
CCTTATTA | 0.187
AAGGCATT | -0.3
CTAGCTGC | -0.213
CAAGTTTC | 0.254
ACCATGCT | -0.145
CCGTCGGA | 0.0057
GACCAATA | 0.0262
AGTGCCAT | -0.185
GCACTAGC | -0.124
CCGCCCTC | -0.012
GGCTGCTA | -0.037
TCCATTCA | -0.00786
CAACTCGG | -0.012
AGAGCAGC | -0.00353
GACTGACC | -0.216
ACCCACAA | 0.144
AATAAGTG | 0.0656

Sequence | PBM E-score
AGCTTCTA | -0.129
ACACATCT | 0.0076
CCCACTAA | 0.126
AAGGTCGG | 0.0198
TAAAATGA | 0.258
CCAGTGGC | -0.0455
CTATTACC | -0.0928
ACGGGTAC | -0.139
GGGCTGAC | -0.0565
AAGTAGAG | -0.0406
CGTTCGAC | -0.223
ACCGACTC | 0.00135
ATGACCCC | -0.0449
AGAAATGA | 0.14
TACCAGAA | 0.253
TGCATGCA | -0.0454
AGCTCGTA | -0.238
ATCGTCTC | -0.0664
ACTACTAC | -0.102
AAATGGCT | 0.0795
ATTCAATG | 0.101
AAGGTTAC | -0.0772
GCTTTCCC | 0.0308
CTTGTACC | 0.0204
CGGGTGTA | 0.0799

Sequence | PBM E-score
TACAGCGA | -0.043
ATGACGCA | -0.0139
CTCAACGA | -0.137
ATGGGAGG | 0.186
GCCCGGCA | -0.107
CCCTAGCC | 0.0466
CTTTAGGC | -0.187
ACGTACAA | -0.0607
CGTGGCAC | -0.0646
CAGAGTCC | -0.0474
CCCAGCTC | -0.144
GAATCCTC | -0.0489
ACAAAGAG | -0.12
CAGTCGGC | 0.0214
CGGATACG | -0.00902
ATCTACGG | -0.0913
GTCAGGCA | -0.05
ACTACATG | 0.0147
ATTTCATA | 0.124
CGCGGCAA | -0.026
GTACTTGA | -0.239
CCTCGTAG | -0.0852
CTTAACGA | 0.122
CGTGTTGA | -0.0467
AGCTATCG | -0.253

Sequence | PBM E-score
AGTTCGTG | 0.0674
CGTTGCTA | -0.169
CCAGCCAA | 0.0654
AGCTCACT | -0.0668
CAGTCAAG | -0.142
GGATCCCA | -0.184
GCACCTAC | -0.138
TAGACCAA | 0.0602
AGAACACA | -0.102
AGGTTAGC | -0.211
CTATGTGA | 0.0261
CGAACATA | 0.14
AGACATAG | 0.0698
TCAATGAA | 0.055
AGCGGCTA | -0.0915
ATTGCGCC | -0.0165
ACCTTCTC | 0.0171
ACCTGCCG | 0.0159
GGGGGGAC | -0.148
CCGCTGAG | -0.236
ACTTGGAC | -0.066
AAAAAATC | 0.363
CAGTGATG | 0.126
CCGATATC | -0.0612
AAGGGCTG | -0.253

Sequence | PBM E-score
ACGCGGTG | 0.0169
AATACAAA | 0.265
GAAGATGC | 0.0101
GGCGATCA | -0.186
CCTATACC | -0.0407
AGATTGGA | -0.02
CAGACAGG | -0.0968
GAACCTAA | 0.0436
GGAGGGAA | -0.0917
CGCCAAAC | -0.0585
AGCCTTCA | -0.11
CTAGTGAC | -0.0777
TGCAGCCA | 0.0119
CATGAGCC | -0.12
AATCACTA | 0.104
ATTGGGGA | -0.0774
CGCAGTAG | -0.0747
AATGCCGT | 0.0806
AGGACGAA | -0.0297
CTCGCCCA | 0.0131
TAAAGCAA | 0.125
CATTGCAA | 0.028
GGTACAAA | -0.00706
CTCGATGA | -0.0183
AACACCTC | -0.134

Sequence | PBM E-score
CGCATCGA | 0.0394
AGCCAGCT | -0.179
TATCACCA | -0.0658
ATTGTCCG | 0.19
CCATAGCG | -0.159
AATTGCCA | 0.0211
GTGCCGGA | 0.0744
CCGTCTCG | -0.0676
CTAGAGGC | -0.185
ACGATCGA | -0.106
AGTGCAGC | -0.257
ATCACGGC | -0.104
GTTCCTGA | -0.146
AGTGACGC | -0.138
AATATGAT | 0.222
CGCTTTTA | 0.0855
GGACGGGA | -0.205
GAGTAAGA | 0.0732
AACCACTA | -0.00019
GCTTAACC | -0.153
CACGATTC | 0.0616
AACAAGGC | -0.00777
CGAAACAC | 0.348
GACTTCCC | -0.208
GCTCGACA | -0.106

Sequence | PBM E-score
CAGGCCTC | -0.239
ACCTGGAG | 0.0957
TACTGCAA | 0.00842
CGCATAAC | 0.152
ATTACGTC | 0.0379
AACTTGCT | -0.0356
TATTCCGA | 0.0499
TGCAGGCA | -0.137
TACAGTGA | 0.00578
AGCAAGGC | -0.182
CCAATCGC | -0.0665
TCCAGCCA | -0.0912
ACCCTTGG | -0.129
ACAAGTCA | -0.0869
AGATGCTA | 0.0477
ACACGTGG | -0.00035
AAATGCAT | 0.138
ATGACAGG | -0.0808
CTGTCGGA | -0.204
